# Test results reported in the supplement of paper PMC3334620.
# Whole data set: some 33,000 sequences, median “E-score (-0.5 to 0.5)” near -0.035, cut for the highest 2% near 0.35. The list shows a part of the results.
# Biological target: T1, Pdr3 (UniProt P33200)
# T1 sequence: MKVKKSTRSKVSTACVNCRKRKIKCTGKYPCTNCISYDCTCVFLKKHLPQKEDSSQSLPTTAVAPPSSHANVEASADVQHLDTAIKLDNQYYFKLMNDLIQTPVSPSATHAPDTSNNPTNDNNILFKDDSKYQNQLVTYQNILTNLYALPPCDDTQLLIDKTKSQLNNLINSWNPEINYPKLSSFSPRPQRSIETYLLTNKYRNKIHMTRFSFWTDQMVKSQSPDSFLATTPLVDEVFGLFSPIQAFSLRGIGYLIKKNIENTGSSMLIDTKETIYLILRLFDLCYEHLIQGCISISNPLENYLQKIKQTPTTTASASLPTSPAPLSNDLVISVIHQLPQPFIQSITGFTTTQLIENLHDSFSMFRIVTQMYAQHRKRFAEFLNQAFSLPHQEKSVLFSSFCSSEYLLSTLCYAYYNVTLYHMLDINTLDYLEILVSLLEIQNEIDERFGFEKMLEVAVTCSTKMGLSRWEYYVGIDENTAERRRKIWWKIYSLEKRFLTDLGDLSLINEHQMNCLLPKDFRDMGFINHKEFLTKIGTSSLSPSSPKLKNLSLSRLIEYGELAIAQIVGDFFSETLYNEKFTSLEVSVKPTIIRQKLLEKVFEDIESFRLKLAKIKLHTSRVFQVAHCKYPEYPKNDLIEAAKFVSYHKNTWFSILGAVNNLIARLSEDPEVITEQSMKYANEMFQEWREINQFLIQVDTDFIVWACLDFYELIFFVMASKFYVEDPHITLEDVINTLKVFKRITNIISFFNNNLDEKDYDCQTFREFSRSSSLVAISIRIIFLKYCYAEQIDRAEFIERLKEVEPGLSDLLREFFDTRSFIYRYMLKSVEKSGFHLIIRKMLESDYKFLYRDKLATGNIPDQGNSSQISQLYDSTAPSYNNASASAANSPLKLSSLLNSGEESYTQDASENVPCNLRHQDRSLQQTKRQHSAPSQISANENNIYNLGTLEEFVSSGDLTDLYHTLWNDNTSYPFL
# Experiment: PBM E-score (8-mer binding enrichment) (E-score (-0.5 to 0.5)); higher = stronger / more preferred TF binding; most listed sequences are background and not binding sites
# Conditions: protein concentration: 200 nM; construct: GST-full length
# Outline: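 GST-tagged yeast TFs (full-length or DNA-binding domain) were made by PURExpress in vitro transcription/translation and applied at about 100-200 nM to universal all-10-mer Agilent arrays. The arrays were made double-stranded by primer extension, on fresh or once-stripped slides. Bound protein was detected with fluorescent anti-GST, and scans were normalised with masliner. Each ungapped eight-base word, pooled with its reverse complement, received an E-score (modified Wilcoxon-Mann-Whitney statistic) from the Universal PBM Analysis Suite.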
row,Sequence,PBM E-score
1,GGTTATAA,0.0461
2,CAACCACG,-0.0699
3,AACCAAGG,-0.0461
4,GCCTCAAA,0.059
5,AAAGGCGT,-0.0847
6,CTAAGTGC,-0.127
7,CCATAGGG,-0.0909
8,GTCTGCGA,-0.13
9,AGATGATC,-0.0773
10,AGTCGTCG,-0.298
11,TGCAAGCA,-0.0791
12,CGTCATTC,0.165
13,ACCAGCTA,-0.142
14,ATTATCCC,0.185
15,ATGCGCAA,0.113
16,CGTGAAAG,-0.152
17,ACTGCCCA,-0.102
18,GTAGCTAA,-0.0587
19,CAGGCAGA,-0.195
20,CTAGCGGC,-0.078
21,GCCGCGTA,0.102
22,AGTAGGCC,0.00094
23,AACTGGTC,0.0148
24,AGAGGGTG,-0.181
25,CATGCTCA,-0.0827

row,Sequence,PBM E-score
1,AGCCTTCG,-0.0725
2,CATGCCTC,0.119
3,TTAACTAA,0.0269
4,AACCTGGG,-0.0982
5,GCAAAGTA,-0.0117
6,TCCCCACA,-0.257
7,AAGGTTGT,-0.0536
8,CCCGCACA,0.185
9,GCTTCCAA,-0.143
10,ACGGATCA,0.366
11,CCGGTATA,0.208
12,AAATTCTA,-0.215
13,GCTTTGCC,-0.0932
14,AGCGGCGA,0.197
15,AGTCAATA,-0.123
16,CTTCTATA,-0.229
17,CATACGAG,-0.0679
18,AATACCCT,0.0285
19,GCGCAGGA,0.00428
20,CCTTACCC,-0.178
21,AAAGCTTG,-0.188
22,GGGTTCTA,-0.0971
23,AAAAGCCC,0.073
24,AGTGAGGA,-0.091
25,ATTACCCG,0.24

row,Sequence,PBM E-score
1,ATGCTTCC,0.182
2,ACACGGCA,0.0539
3,CTCCGCTC,0.123
4,ACAGGCAG,-0.183
5,ACACCTGA,-0.127
6,GTTAGCGA,0.075
7,AAGGAATC,-0.0434
8,CACTGACA,-0.122
9,CATCAATG,0.0203
10,CTGTTCAC,-0.0853
11,CTCCGGTA,0.321
12,AAAGTCTG,-0.294
13,TCAGCTCA,0.0564
14,GTTGTGCA,-0.191
15,CCCACCCG,0.387
16,AACTTCGT,-0.0769
17,GTTTTTGA,0.038
18,ATGTACTC,-0.0746
19,ACCCAATG,-0.0796
20,ACGGCATC,0.138
21,GCCTTCTA,-0.163
22,AGCCTCAA,-0.18
23,ACCTTATC,0.0594
24,CCGGTGGC,0.264
25,AAGACGGT,-0.312

row,Sequence,PBM E-score
1,GCAATTTA,0.119
2,AGAGTGCC,-0.257
3,CGGCGGAG,0.372
4,CTAAGGGC,-0.294
5,TATGATAA,0.124
6,AAACGCAT,-0.257
7,TCGGGAAA,0.309
8,GTCTAATA,-0.336
9,ATAATCAA,0.0905
10,ATTTGACA,-0.176
11,CCATCCGA,0.245
12,ATGCGGCA,0.0388
13,GATCGCTA,0.0267
14,GCACTGGA,-0.129
15,AAAGTAGA,-0.237
16,CTCGACGA,-0.255
17,CCTGCTCG,-0.171
18,GCCAATCC,0.223
19,CTCAGGGA,-0.166
20,AGAAACCG,0.169
21,GTCTGATA,-0.122
22,GCAGGGGC,-0.0762
23,CGGATAAA,0.383
24,CCCGACTA,0.0876
25,TATTGGAA,-0.306

row,Sequence,PBM E-score
1,ACTTTACA,-0.00255
2,CAGCGCAC,-0.0543
3,ATTGCCGG,0.283
4,AGGCTCGG,0.0546
5,CGCTCTAC,-0.0833
6,CAAGCCTC,-0.14
7,TTCAGAAA,-0.195
8,AACAGGCC,-0.0503
9,ATGTAATG,0.073
10,CCAAACCC,0.0248
11,CGGGGCGC,0.215
12,ACGGCGGG,0.199
13,GGAGCAAA,0.0673
14,CACGGAGA,0.372
15,AACATGTT,-0.05
16,CGGGCACA,0.0163
17,CTCCAGGA,-0.249
18,GCCGATAA,0.0452
19,CGACCGCC,0.0233
20,TAAAATCA,-0.00537
21,ACCTCAAT,-0.101
22,TAATTGGA,-0.0764
23,AAGTTTCG,0.011
24,AAGTGATA,-0.0901
25,AGTACTTG,-0.162

row,Sequence,PBM E-score
1,CGAATATA,0.105
2,CGATCAGA,-0.184
3,CTAACAAC,0.0288
4,ACGTATAG,-0.206
5,AACTTACC,-0.0181
6,GACTAAAA,-0.0119
7,AGTCCCTA,-0.202
8,GGGTCAAA,0.0962
9,ATGCGCAG,-0.0838
10,ATAGGATA,-0.00772
11,GTTTCCAA,-0.274
12,ACCAATTC,0.0992
13,CGGCTCCA,0.21
14,ATTCCGCC,0.417
15,CAAACAGA,-0.00446
16,CCAGTGCG,-0.0932
17,CATGTTGC,-0.11
18,ATCTTTAG,0.0683
19,CCACTCGG,0.135
20,TATACGCA,-0.0511
21,AGTCGCGC,0.193
22,CCGATGAC,0.166
23,CGTCCTGC,-0.0454
24,CGATGACC,0.099
25,ACAGCGAT,-0.121

row,Sequence,PBM E-score
1,ATGATAAG,0.0887
2,AATAAGGT,0.0693
3,ACAAGCGT,-0.231
4,ATCTAGGA,-0.0865
5,CGCGAAAC,-0.00744
6,CGTACGTA,-0.265
7,AGCGCAGA,-0.0489
8,GTTAAGTA,-0.156
9,CTCATATA,0.0362
10,CGCATCCC,-0.0518
11,AATATCGA,0.143
12,CACGGGAG,0.0682
13,CAGCCGAA,0.0741
14,ACGGGCCT,0.0961
15,CGCCGGTA,0.13
16,AAACTATT,0.038
17,GATCCGGC,0.369
18,CTGATGCA,0.0307
19,ATGAATCC,0.121
20,GCATTCCA,-0.139
21,ATGGTGAA,-0.0127
22,AAAACTAA,-0.0512
